Assay results reported in patent US20230143604A1, “QW DOSING OF GIP RECEPTOR AGONIST PEPTIDE COMPOUNDS AND USES THEREOF” (TAKEDA PHARMACEUTICAL COMPANY LIMITED, priority 2020, published 2023).
Where two headings read alike, the source gives them in different places. Not every detail of the peptide structures is certain; ends, links or a residue may be inferred. Starred links: 1 amine or outer side, 2 acyl side, 3 side chain; linkers in the order of their positions; H or OH if unused. Non-standard residues stand in square brackets, D forms with d. Residues, ends and D or L forms follow the SMILES beside them. Groups on a side chain read outwards from the residue. *: point of attachment. C18 diacid = O=C(O)CCCCCCCCCCCCCCCCC(=O)*; C17 diacid = O=C(O)CCCCCCCCCCCCCCCC(=O)*; γGlu = O=C(O)[C@H](CCC(=O)[*:2])N[*:1]; NMeY = CN[C@@H](Cc1ccc(O)cc1)C(=O)O; AEEA = NCCOCCOCC(=O)O; Aib = CC(C)(N)C(=O)O

Columns and labels:
[1] = molecular target: T1, human GLP-1R (Homo sapiens, UniProt P43220); assay: Human GLP1R agonist activity, intracellular cAMP accumulation; assay type: cell-based
T1 construct: HEK-293T cells overexpressing full-length human GLP-1R; FLAG (N); host or cells: HEK-293T
Summary of the method: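 cAMP accumulation is measured by HTRF after a 1 hr, room-temperature, dark exposure of thawed cells (4×10^5 cells/mL in Krebs Ringer buffer) to compound. Activity is scaled between DMSO alone as 0% and 1 nm GLP-1 as 100%.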

[2] = test system: C57BL/6J mice; assay: Oral glucose tolerance test (OGTT); assay type: in vivo; conditions: 3 nmol/kg s.c., 24 hours before glucose loading
Summary of the method: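 Peptide or vehicle given s.c. at 0.1, 0.3, 3 or 10 nmol/kg (peptide-dependent), 24 h before oral 50% dextrose at 5 ml/kg unless stated otherwise. Blood glucose read at 0, 15, 30 and 60 min. % inhibition = (1−(AUC cpd−AUC naïve)/(AUC veh−AUC naïve))×100.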

[3] = read-out: Human GLP1R cAMP EC50, HEK293T, HEK-293T cells overexpressing human GLP-1R, 1 hr
[4] = HEK-293T cells overexpressing human GLP-1R, 1 hr, read-out: Human GLP1R cAMP EC50, HEK293T

T1 sequence (P43220 24-463): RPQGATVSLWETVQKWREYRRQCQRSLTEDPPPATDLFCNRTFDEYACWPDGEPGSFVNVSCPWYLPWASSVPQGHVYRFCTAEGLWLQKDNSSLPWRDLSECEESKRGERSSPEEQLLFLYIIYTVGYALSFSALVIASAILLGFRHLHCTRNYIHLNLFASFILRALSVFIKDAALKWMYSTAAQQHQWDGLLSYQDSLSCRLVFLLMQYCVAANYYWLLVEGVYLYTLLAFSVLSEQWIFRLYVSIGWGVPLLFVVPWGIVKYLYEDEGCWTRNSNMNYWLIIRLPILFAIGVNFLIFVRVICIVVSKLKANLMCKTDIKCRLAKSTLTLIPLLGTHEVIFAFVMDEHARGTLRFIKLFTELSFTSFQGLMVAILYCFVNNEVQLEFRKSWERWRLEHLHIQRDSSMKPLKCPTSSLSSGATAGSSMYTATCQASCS

CC[C@H](C)[C@H](NC(=O)[C@H](Cc1ccccc1)NC(=O)[C@@H](NC(=O)CNC(=O)[C@H](CCC(=O)O)NC(=O)C(C)(C)NC(=O)[C@H](Cc1ccc(O)cc1)NC)[C@@H](C)O)C(=O)N[C@@H](CO)C(=O)N[C@@H](CC(=O)O)C(=O)N[C@@H](Cc1ccc(O)cc1)C(=O)N[C@@H](CO)C(=O)N[C@H](C(=O)NC(C)(C)C(=O)N[C@@H](CC(C)C)C(=O)N[C@@H](CC(=O)O)C(=O)N[C@@H](CCCNC(=N)N)C(=O)NC(C)(C)C(=O)N[C@@H](C)C(=O)N[C@@H](CCC(N)=O)C(=O)NC(C)(C)C(=O)N[C@@H](CCCCNC(=O)COCCOCCNC(=O)COCCOCCNC(=O)CC[C@H](NC(=O)CCCCCCCCCCCCCCCCC(=O)O)C(=O)O)C(=O)N[C@@H](Cc1ccccc1)C(=O)N[C@H](C(=O)N[C@@H](CC(N)=O)C(=O)N[C@@H](Cc1c[nH]c2ccccc12)C(=O)N[C@@H](CC(C)C)C(=O)N[C@@H](CC(C)C)C(=O)N[C@@H](C)C(=O)N[C@@H](CCC(N)=O)C(=O)N[C@@H](CO)C(=O)N1CCC[C@H]1C(=O)N[C@@H](CO)C(=O)N[C@@H](CO)C(=O)NCC(=O)N[C@@H](C)C(=O)N1CCC[C@H]1C(=O)N1CCC[C@H]1C(=O)N1CCC[C@H]1C(=O)N[C@@H](CO)C(N)=O)C(C)C)[C@@H](C)CC [Compound 91] (H-[NMeY][Aib]EGTFISDYSI[Aib]LDR[Aib]AQ[Aib]K([AEEA-AEEA-γGlu-C18 diacid])FVNWLLAQSPSSGAPPPS-NH2)
EC50 [1, 3]: 0.0309 µM | Oral Glucose Tolerance Test Percent decrease in blood glucose AUC (%) over 60 mins [2]: 44% (3 nmol/kg)

CC[C@H](C)[C@H](NC(=O)[C@H](Cc1ccccc1)NC(=O)[C@@H](NC(=O)CNC(=O)[C@H](CCC(=O)O)NC(=O)C(C)(C)NC(=O)[C@H](Cc1ccc(O)cc1)NC)[C@@H](C)O)C(=O)N[C@@H](CO)C(=O)N[C@@H](CC(=O)O)C(=O)N[C@@H](Cc1ccc(O)cc1)C(=O)N[C@@H](CO)C(=O)N[C@H](C(=O)NC(C)(C)C(=O)N[C@@H](CC(C)C)C(=O)N[C@@H](CC(=O)O)C(=O)N[C@@H](CCCNC(=N)N)C(=O)NC(C)(C)C(=O)N[C@@H](C)C(=O)N[C@@H](CCC(N)=O)C(=O)NC(C)(C)C(=O)N[C@@H](CC(=O)O)C(=O)N[C@@H](Cc1ccccc1)C(=O)N[C@H](C(=O)N[C@@H](CC(N)=O)C(=O)N[C@@H](Cc1c[nH]c2ccccc12)C(=O)N[C@@H](CC(C)C)C(=O)N[C@@H](CC(C)C)C(=O)N[C@@H](C)C(=O)N[C@@H](CCCCNC(=O)COCCOCCNC(=O)COCCOCCNC(=O)CC[C@H](NC(=O)CC[C@H](NC(=O)CCCCCCCCCCCCCCCCC(=O)O)C(=O)O)C(=O)O)C(=O)N[C@@H](CCCNC(=N)N)C(=O)NCC(=O)O)C(C)C)[C@@H](C)CC [Compound 62] (H-[NMeY][Aib]EGTFISDYSI[Aib]LDR[Aib]AQ[Aib]DFVNWLLAK([AEEA-AEEA-γGlu-γGlu-C18 diacid])RG-OH)
EC50 [1, 4]: > 1 µM | Oral Glucose Tolerance Test Percent decrease in blood glucose AUC (%) over 60 mins [2]: 16% (3 nmol/kg)

CC[C@H](C)[C@H](NC(=O)[C@H](CO)NC(=O)[C@H](Cc1ccc(O)cc1)NC(=O)[C@H](CC(=O)O)NC(=O)[C@H](CO)NC(=O)[C@@H](NC(=O)[C@H](Cc1ccccc1)NC(=O)[C@@H](NC(=O)CNC(=O)[C@H](CCC(=O)O)NC(=O)C(C)(C)NC(=O)[C@H](Cc1ccc(O)cc1)NC)[C@@H](C)O)[C@@H](C)CC)C(=O)N[C@@H](C)C(=O)N[C@@H](CC(C)C)C(=O)N[C@@H](CC(=O)O)C(=O)N[C@@H](CCCNC(=N)N)C(=O)N[C@@H](CCCCNC(=O)COCCOCCNC(=O)COCCOCCNC(=O)CC[C@H](NC(=O)CCCCCCCCCCCCCCCCC(=O)O)C(=O)O)C(=O)N[C@@H](C)C(=O)N[C@@H](CCC(N)=O)C(=O)NC(C)(C)C(=O)N[C@@H](CC(=O)O)C(=O)N[C@@H](Cc1ccccc1)C(=O)N[C@H](C(=O)N[C@@H](CC(N)=O)C(=O)N[C@@H](Cc1c[nH]c2ccccc12)C(=O)N[C@@H](CC(C)C)C(=O)N[C@@H](CC(C)C)C(=O)N[C@@H](C)C(=O)N[C@@H](CCC(N)=O)C(=O)N[C@@H](CCCNC(=N)N)C(=O)N1CCC[C@H]1C(=O)N[C@@H](CO)C(=O)N[C@@H](CO)C(=O)NCC(=O)N[C@@H](C)C(=O)N1CCC[C@H]1C(=O)N1CCC[C@H]1C(=O)N1CCC[C@H]1C(=O)N[C@@H](CO)C(N)=O)C(C)C [Compound 23] (H-[NMeY][Aib]EGTFISDYSIALDRK([AEEA-AEEA-γGlu-C18 diacid])AQ[Aib]DFVNWLLAQRPSSGAPPPS-NH2)
EC50 [1, 3]: 0.0501 µM | Oral Glucose Tolerance Test Percent decrease in blood glucose AUC (%) over 60 mins [2]: 46% (3 nmol/kg)

CC[C@H](C)[C@H](NC(=O)[C@H](CO)NC(=O)[C@H](Cc1ccc(O)cc1)NC(=O)[C@H](CC(=O)O)NC(=O)[C@H](CO)NC(=O)[C@@H](NC(=O)[C@H](Cc1ccccc1)NC(=O)[C@@H](NC(=O)CNC(=O)[C@H](CCC(=O)O)NC(=O)C(C)(C)NC(=O)[C@H](Cc1ccc(O)cc1)NC)[C@@H](C)O)[C@@H](C)CC)C(=O)N[C@@H](C)C(=O)N[C@@H](CC(C)C)C(=O)N[C@@H](CC(=O)O)C(=O)N[C@@H](CCCNC(=N)N)C(=O)NC(C)(C)C(=O)N[C@@H](C)C(=O)N[C@@H](CCC(N)=O)C(=O)NC(C)(C)C(=O)N[C@@H](CCCCNC(=O)COCCOCCNC(=O)COCCOCCNC(=O)CC[C@H](NC(=O)CC[C@H](NC(=O)CCCCCCCCCCCCCCCCC(=O)O)C(=O)O)C(=O)O)C(=O)N[C@@H](Cc1ccccc1)C(=O)N[C@H](C(=O)N[C@@H](CCC(=O)O)C(=O)N[C@@H](Cc1c[nH]c2ccccc12)C(=O)N[C@@H](CC(C)C)C(=O)N[C@@H](CC(C)C)C(=O)N[C@@H](C)C(=O)N[C@@H](CCC(N)=O)C(=O)N[C@@H](CO)C(=O)N1CCC[C@H]1C(=O)NCC(=O)O)C(C)C [Compound 119] (H-[NMeY][Aib]EGTFISDYSIALDR[Aib]AQ[Aib]K([AEEA-AEEA-γGlu-γGlu-C18 diacid])FVEWLLAQSPG-OH)
EC50 [1, 4]: 0.0501 µM | Oral Glucose Tolerance Test Percent decrease in blood glucose AUC (%) over 60 mins [2]: 12% (3 nmol/kg)

CC[C@H](C)[C@H](NC(=O)[C@H](CO)NC(=O)[C@H](Cc1ccc(O)cc1)NC(=O)[C@H](CC(=O)O)NC(=O)[C@H](CO)NC(=O)[C@@H](NC(=O)[C@H](Cc1ccccc1)NC(=O)[C@@H](NC(=O)CNC(=O)[C@H](CCC(=O)O)NC(=O)C(C)(C)NC(=O)[C@H](Cc1ccc(O)cc1)NC)[C@@H](C)O)[C@@H](C)CC)C(=O)N[C@@H](C)C(=O)N[C@@H](CC(C)C)C(=O)N[C@@H](CC(=O)O)C(=O)N[C@@H](CCCNC(=N)N)C(=O)NC(C)(C)C(=O)N[C@@H](CCCCNC(=O)COCCOCCNC(=O)COCCOCCNC(=O)CC[C@H](NC(=O)CC[C@H](NC(=O)CCCCCCCCCCCCCCCC(=O)O)C(=O)O)C(=O)O)C(=O)N[C@@H](CCC(N)=O)C(=O)NC(C)(C)C(=O)N[C@@H](CC(N)=O)C(=O)N[C@@H](Cc1ccccc1)C(=O)N[C@H](C(=O)N[C@@H](CC(N)=O)C(=O)N[C@@H](Cc1c[nH]c2ccccc12)C(=O)N[C@@H](CC(C)C)C(=O)N[C@@H](CC(C)C)C(=O)N[C@@H](C)C(=O)N[C@@H](CCC(N)=O)C(=O)N[C@@H](CO)C(=O)NCC(=O)NCC(=O)NCC(=O)NCC(=O)N[C@@H](CO)C(N)=O)C(C)C [Compound 31] (H-[NMeY][Aib]EGTFISDYSIALDR[Aib]K([AEEA-AEEA-γGlu-γGlu-C17 diacid])Q[Aib]NFVNWLLAQSGGGGS-NH2)
EC50 [1, 4]: 0.17 µM | Oral Glucose Tolerance Test Percent decrease in blood glucose AUC (%) over 60 mins [2]: 43% (3 nmol/kg)

CC[C@H](C)[C@H](NC(=O)[C@H](Cc1ccccc1)NC(=O)[C@@H](NC(=O)CNC(=O)[C@H](CCC(=O)O)NC(=O)C(C)(C)NC(=O)[C@H](Cc1ccc(O)cc1)NC)[C@@H](C)O)C(=O)N[C@@H](CO)C(=O)N[C@@H](CC(=O)O)C(=O)N[C@@H](Cc1ccc(O)cc1)C(=O)N[C@@H](CO)C(=O)N[C@H](C(=O)NC(C)(C)C(=O)N[C@@H](CC(C)C)C(=O)N[C@@H](CC(=O)O)C(=O)N[C@@H](CCCNC(=N)N)C(=O)NC(C)(C)C(=O)N[C@@H](CCCCNC(=O)COCCOCCNC(=O)COCCOCCNC(=O)CC[C@H](NC(=O)CC[C@H](NC(=O)CCCCCCCCCCCCCCCCC(=O)O)C(=O)O)C(=O)O)C(=O)N[C@@H](CCC(N)=O)C(=O)NC(C)(C)C(=O)N[C@@H](CC(N)=O)C(=O)N[C@@H](Cc1ccccc1)C(=O)N[C@H](C(=O)N[C@@H](CC(N)=O)C(=O)N[C@@H](Cc1c[nH]c2ccccc12)C(=O)N[C@@H](CC(C)C)C(=O)N[C@@H](CC(C)C)C(=O)N[C@@H](C)C(=O)N[C@@H](CCC(N)=O)C(=O)N[C@@H](CO)C(=O)N1CCC[C@H]1C(=O)N[C@@H](CO)C(=O)N[C@@H](CO)C(=O)NCC(=O)N[C@@H](C)C(=O)N1CCC[C@H]1C(=O)N1CCC[C@H]1C(=O)N1CCC[C@H]1C(=O)N[C@@H](CO)C(N)=O)C(C)C)[C@@H](C)CC [Compound 100] (H-[NMeY][Aib]EGTFISDYSI[Aib]LDR[Aib]K([AEEA-AEEA-γGlu-γGlu-C18 diacid])Q[Aib]NFVNWLLAQSPSSGAPPPS-NH2)
EC50 [1, 3]: > 1 µM | Oral Glucose Tolerance Test Percent decrease in blood glucose AUC (%) over 60 mins [2]: 17% (3 nmol/kg)
